Source: the RNAGym collection of RNA variant scans (doi:10.7554/elife.90254)
Read counts are not given, so values of variants with three or more changes are uncertain.

B1: LINE1-mini (parent)
chain: GGCAGAGCUCAACACAGCGUGGCAAAGUGGCUGUGGCUAGACUGCC

Variants of: B1
Assay: self-cleavage, relative activity (ratio to wild type); higher = more cleavage; in vitro, sequencing; the parent is a self-cleaving ribozyme

Variant	self-cleavage
CGCUGAGCUCGACACAGCGUGGCAAAGUGCCUGUGGCUAGACUGCC [G1C A4U A11G G30C]	0.01
CGCUGAGCUGAACGCAGCGUGGCAAAGUGGCUGUGGCUAGACUGCC [G1C A4U C10G A14G]	0
CGCUGAGCUCAACACAGGGUGGGAAAGUGGCUGUCUCUAGACUGCC [G1C A4U C18G C23G G35C G36U]	0.04
CGCUGAGCUCAACACAGCUUGUCAAAGUGGCUGUGCCUAGACUGCC [G1C A4U G19U G22U G36C]	0.06
CGCUGAGCUCAACACAGCGAGGCAAAGUGGCUGUGGCUAGCCUGCC [G1C A4U U20A A41C]	0.02
CGCAGCGCUCAACACAGCGUGGCAGAGUGGCUGAGGCUAGACUGCC [G1C A6C A25G U34A]	0.01
CGCAGCGCUCAACACAGGGUGGCAAAGUGGCUGUGGCUAGACUGCC [G1C A6C C18G]	0.01
CGCAGCGCUCAACACAGCGUGGCAAAGUGGCUGAGGCUAGACUGCC [G1C A6C U34A]	0.01
CGCAGGGCUUAACACAGCCUGGCAAAGUGGCUCUGGCUAGACUGCC [G1C A6G C10U G19C G33C]	0.01
CGCAGGGCUCAACAUAGCGUGGCAAAGUGGCUUUGGCUAGACUGCC [G1C A6G C15U G33U]	0.01
CGCAGGGCUCAACACAGAGUGGCAAACUGGCUGUGGCUAGACUGCC [G1C A6G C18A G27C]	0
CGCAGGACUCAACACAGCGUGGCAAAGUGGCUGUGGCUAGACUGCC [G1C A6G G7A]	0
CGCAGGGCACAACACGGCGUGGCAAAGUGGCAGUGGCUAGACUGCC [G1C A6G U9A A16G U32A]	0.02
CGCAGGGCCCAACACAGCGUGGCAAAGUGGCUGUGGCUAGAGUGCC [G1C A6G U9C C42G]	0
CGCAGUGCUCAACACCGCGUGUGAAAGUGGCUGUGGCUAGACUGCC [G1C A6U A16C G22U C23G]	0.01
CGCAGUGCUCAACACUGCGUGGCAAAGUGGCUGUGGCUAGACUGCC [G1C A6U A16U]	0.01
CGCAGUGAUCAACACAGCGUGGCAAAGUGUCUGCGGCUAGACUGCC [G1C A6U C8A G30U U34C]	0.06
CGCAGUGUUCAACUCAGCGUGUCAAAGUGGCUGUGGCUAGACUGCG [G1C A6U C8U A14U G22U C46G]	0.07
CGCAGUGCUCAACACAGCGUGGCAAAGUGGCUGGGGCUAGACUGCC [G1C A6U U34G]	0.02

Variant	self-cleavage
CGCAGAGCUCCACACGGCGUUGCAAAGUGGCUGUGGCUAGACUGGC [G1C A11C A16G G21U C45G]	0.01
CGCAGAGCUCCACACAGCGUGGCAAAGUGGCUGUGGCUAGACUGAC [G1C A11C C45A]	0.01
CGCAGAGCUCCACACAGCGUGUCAAAGUGGCUGUGGCUGGACUGCC [G1C A11C G22U A39G]	0
CGCAGAGCUCGACACAGCGUGGCAAAGUGGAUGUGGCUAGACUGCC [G1C A11G C31A]	0.01
CGCAGAGCUCUACACAGCGUGGCAAAGUGGCUGUGGCUAGUCUGCC [G1C A11U A41U]	0.02
CGCAGAGCUCUACACAGGGUGAUAAAGUGGCUGUGGGUAGACUGCC [G1C A11U C18G G22A C23U C37G]	0.01
CGCAGAGCUCUACACAGUGUGGCAAAGUGGCUGACGCUAGACUGCC [G1C A11U C18U U34A G35C]	0
CGCAGAGCUCUACACAGCGUGGCAAACUGGCUGUGGCUAGUCUGCC [G1C A11U G27C A41U]	0
CGCAGAGCUCACCACAGCGUGGCAAGGUGGCUGUGGCUAGACUGCC [G1C A12C A26G]	0
CGCAGAGCUCACCACAGCGUGGCAAAGUGGUUAUGGCUAGACUGCC [G1C A12C C31U G33A]	0
CGCAGAGCUCACCACAGCGUGGCAAAGUGGCUGUGGCUAGAUUGCC [G1C A12C C42U]	0
CGCAGAGCUCACCACAGCGUGGCAAAUUGGCUGUGUCUGGACUGCC [G1C A12C G27U G36U A39G]	0.01
CGCAGAGCUCAGCACAGCGUGGCAAAGUGGCUGUGGCUGGACUGCC [G1C A12G A39G]	0.01
CGCAGAGCUCAUCACAGCGUGACAAAGUGGCUGUGGCUAGACUGCC [G1C A12U G22A]	0.08
CGCAGAGCUCAUCACAGCGUGGCAAAGUGUCUGUGGCUAGACUGCC [G1C A12U G30U]	0.05
CGCAGAGCUCAACCAAGCGUGGCAAAGUGCCUGUGGCUAGACUGCC [G1C A14C C15A G30C]	0
CGCAGAGCUCAACCCAGCAUGUCAAAGUGGCUGUGGCUAGACUGCC [G1C A14C G19A G22U]	0.02
CGCAGAGCUCAACGCAGCGUGGCAUAGUGGCUGUGGCUAGACUGCC [G1C A14G A25U]	0.03
CGCAGAGCUCAACGCAGCGUGGCAACGUGGCUGUGGCUAGACUGCC [G1C A14G A26C]	0.01

Variant	self-cleavage
CGCAGAGCUCAACGCAGCGUGGGAAAGUGGCUGUGGCUAGACUGCC [G1C A14G C23G]	0.1
CGCAGAGCUCAACUCAGCGUGACAAAGUGGCUGUGGAUAGACUGCC [G1C A14U G22A C37A]	0.02
CGCAGAGCUCAACUCAGCGAGGCAAAGUGGAUAUGGCUAGACUGCC [G1C A14U U20A C31A G33A]	0.01
CGCAGAGCUCAACACCGCAUGGCAAAGUGGGUGUGGCUAGACUGCC [G1C A16C G19A C31G]	0
CGCAGAGCUCAACACGGCGUAGCAAAGUGACGGUGGCUAGACGGCC [G1C A16G G21A G30A U32G U43G]	0.01
CGCAGAGCUCAACACGGCGUUGCAAAGUGGCUGUGGCUAGACUGCC [G1C A16G G21U]	0.08
CGCAGAGCUCAACACUACGUGGCAAAGUGGGUGUGGCUAGACUGCC [G1C A16U G17A C31G]	0.02
CGCAGAGCUCAACACUGCGUAGCAAAGUGGCUGUGGCUAGACUGCC [G1C A16U G21A]	0.04
CGCAGAGCUCAACACUGCGUGGCAAAGUGCCUGUGGCUAGACUGCC [G1C A16U G30C]	0.03
CGCAGAGCUCAACACUGCGUGGCAAAGUGGCUGUGGCUAGACUACC [G1C A16U G44A]	0.01
CGCAGAGCUCAACACUGCGUGGCAAAGAGGCUGUGGCUAGACUGCC [G1C A16U U28A]	0.04
CGCAGAGCUCAACACUGCGUGGCAAAGUGGCCGUGGCUAGACUGCC [G1C A16U U32C]	0.01
CGCAGAGCUCAACACAGCGUGGCGAAGUGGCUUGGGCUAGACUGCC [G1C A24G G33U U34G]	0.04
CGCAGAGCUCAACACAGCGUGGCUAAAUGGCUGUGGCUAGACUGCC [G1C A24U G27A]	0.2
CGCAGAGCUCAACACAGCGUGGCAGAGUGGUUGGGGCUAGACUGCC [G1C A25G C31U U34G]	0.03
CGCAGAGCUCAACACAGCGUGGCAGAGUGGCUUUGGCUAGACUGCC [G1C A25G G33U]	0.02
CGCAGAGCUCAACACAGCGUGGCAUAGAGGCUGUGGCUACACUGCC [G1C A25U U28A G40C]	0.02
CGCAGAGCUCAACACAGCGUGGCAACGUGGGUGUGGCUAGACUGCC [G1C A26C C31G]	0.02
